# “And” between values parts separate entries of the source, which are not always exact repeats. Identical values can stand only once. Inconclusive means that the source gave no clear call. Such entries were picked first, then a sample of the others. For some assays here: Where the call is inconclusive, the potency comes from a doubtful curve fit. A structure can be active in one record and inactive in another. The source made the active and inactive calls. Calls follow the shape of the dose curve; as a rule, active = well fitted curve in the direction sought with a large enough effect; inconclusive = small, poorly fitted or top-dose-only effect, or another doubt; inactive = no such curve, though single readings can be large; an effect the other way counts as inactive or inconclusive.
# Tests used:
# [1] = qHTS of pediatric cancer cell lines to identify multiple opportunities for drug repurposing: Primary screen for BT-37 cells (AID 1347094); also: potency is read from the fitted curve at half-maximal effect
# In short: (§1)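 Phenotypic viability qHTS, 48 h compound exposure, CellTiter-Glo luminescence read-out; multi-concentration dosing so that potency and efficacy derive directly from the primary screen's curves.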
# [2] = qHTS of pediatric cancer cell lines to identify multiple opportunities for drug repurposing: Primary screen for BT-12 cells (AID 1347101); also: potency is read from the fitted curve at half-maximal effect; nearly all actives have a fitted effect of over 25% in size
# In short: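 Cells (500-1,000/well) rested 5 h, then received compounds for 48 h; metabolically active cells were measured by CellTiter-Glo luminescence. Final concentrations spanned up to 46 µM (MIPE, 11-point) or 0.59 nM-46 µM (NPC, 8-point) in primary screens, 11-point in follow-ups.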
# [3] = qHTS of pediatric cancer cell lines to identify multiple opportunities for drug repurposing: Primary screen for MG 63 (6-TG R) cells (AID 1347105); conditions: MG 63 (6-TG R) viability, CellTiter-Glo, 48 h; activity change, negative = cytotoxic: at 46 µM (top of the series) unless noted; also: potency is read from the fitted curve at half-maximal effect; nearly all actives have a fitted effect of over 50% in size
# In short: as §1
# [4] = qHTS of pediatric cancer cell lines to identify multiple opportunities for drug repurposing: Primary screen for Rh30 cells (AID 1347107); also: potency is read from the fitted curve at half-maximal effect; nearly all actives have a fitted effect of over 75% in size
# In short: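 Viability after 48 h compound treatment at 37C, 500-1,000 cells/well, read as ATP luminescence with CellTiter-Glo. Primary screens used 11-point (MIPE, 0.78 nM-46 µM) or 8-point (NPC, 0.59 nM-46 µM) final concentrations; follow-up screens used 11-point dilutions.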
# [5] = test system: Zika virus NS2B-NS3 protease (linked construct); assay: Primary screen NINDS Rhodamine qHTS for Zika virus inhibitors (AID 1347160); also: nearly all actives have a fitted effect of over 55% in size
# In short: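 Each compound, titrated, sat 15 min with 25 nM linked protease before 1.5 microM Rhodamine110 substrate went in. Fluorescence gain over the next 15 min, in pH 8.0 Tris with Tween 20, gave Hill-fitted curves.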
# [6] = Quantitative High-Throughput drug screen in 47 multiple myeloma cell lines against the NCATS MIPE library collection: KHM11_PLB cell viability assay (AID 1918962); conditions: KHM11 myeloma cell viability, CellTiter-Glo ATP luminescence, 48 h; viability, % of DMSO control: at 45.8 µM (top of the series); also: potency is read from the fitted curve at half-maximal effect; nearly all actives have a fitted effect of over 35% in size
# In short: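 We plated 500 myeloma cells per well, pinned in MIPE 4.0 compounds, and incubated for 48 hours at 37C. ATP was then quantified with CellTiter-Glo, with DMSO and media-only wells defining 100% and 0%.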
# [7] = Quantitative High-Throughput drug screen in 47 multiple myeloma cell lines against the NCATS MIPE library collection: JIM1_ECACC cell viability assay (AID 1918964; also: potency is read from the fitted curve at half-maximal effect)
# In short: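 Relative luminescence from CellTiter-Glo served as the viability signal, referenced to DMSO-treated (100%) and cell-free medium (0%) controls. Treatment lasted 48 hours at 37C with 500 cells per well.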
# [8] = Quantitative High-Throughput drug screen in 47 multiple myeloma cell lines against the NCATS MIPE library collection: L363_DSMZ cell viability assay (AID 1918984); conditions: L363 myeloma viability, CellTiter-Glo ATP luminescence, 48 h; viability (% of control): at 45.8 µM (top of the series); also: potency is read from the fitted curve at half-maximal effect; nearly all actives have a fitted effect of over 40% in size
# In short: (§2)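 Cells were exposed to library compounds for 48 hours, after which ATP was measured by CellTiter-Glo. Signal was taken as median relative luminescence units.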
# [9] = Quantitative High-Throughput drug screen in 47 multiple myeloma cell lines against the NCATS MIPE library collection: SKMM1_PLB cell viability assay (AID 1919863); conditions: SKMM1 myeloma viability, CellTiter-Glo ATP, 48 h; viability: active compounds read low; also: potency is read from the fitted curve at half-maximal effect; nearly all actives have a fitted effect of over 35% in size
# In short: as §2
# [10] = Quantitative High-Throughput drug screen in 47 multiple myeloma cell lines against the NCATS MIPE library collection: UTMC2_PLB cell viability assay (AID 1919868); conditions: CellTiter-Glo ATP luminescence, 48 h; viability (% of DMSO control): at 45.8 µM (top of the series); also: nearly all actives have a fitted effect of over 55% in size; also: potency is read from the fitted curve at half-maximal effect
# In short: as §2
# [11] = test system: MKL-2; assay: qHTS assay to identify novel small-molecules to repurpose for Merkel cell carcinoma treatment (AID 1296009); conditions: MCC and control cell lines, CellTiter-Glo viability, 72 h; activity change, negative = cytotoxicity: at 46 µM (top of the series); also: nearly all actives have a fitted effect of over 60% in size; also: potency is read from the fitted curve at half-maximal effect; as to activity change, negative = cytotoxicity: % is scaled to controls: 0 for no effect and ±100 for the full control effect
# In short: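 Dose-response viability screen; 72 hr exposure at 37 degree celsius; CellTiter-Glo added, 10 min room temperature, luminescence read; RLUs scaled between no-cell and DMSO wells.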
# [12] = test system: C33A; assay: Primary qHTS to identify gynecologic anti-cancer compounds using libraries of approved drugs and bioactive compounds (AID 1345084); conditions: Gynecologic cancer cell panel viability, ATPlite luminescence, 48 h; series mostly up to 57.5 µM; also: nearly all actives have a fitted effect of over 55% in size; also: potency is read from the fitted curve at half-maximal effect; as to activity change, negative = cytotoxicity: % is scaled to controls: 0 for no effect and ±100 for the full control effect
# In short: (§3)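 ATP-based viability (ATPlite), 1,000 cells/well, 16 h pre-incubation, 48 h compound at 37 C, 5% CO2, 15 min RT before read.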
# [13] = test system: CASKI; assay: as above; conditions: Gynecologic cancer cell panel viability, ATPlite luminescence, 48 h; activity change, negative = cytotoxicity: at 57.5 µM (top of the series)
# In short: as §3
# [14] = qHTS of pediatric cancer cell lines to identify multiple opportunities for drug repurposing: Primary screen for NB-EBc1 cells (AID 1347095); also: potency is read from the fitted curve at half-maximal effect
# In short: as §1
# [15] = test system: Zika virus NS2B-NS3 protease; assay: Primary screen GU AMC qHTS for Zika virus inhibitors (AID 1347154); also: potency is read from the fitted curve at half-maximal effect; nearly all actives have a fitted effect of over 70% in size
# In short: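 Unlinked Zika NS2B hydrophilic domain–NS3 protease complex at 25 nM in 10 mM Tris-HCl pH 8.0, 0.01% Tween 20, with an AMC peptide substrate. Fluorescence change (340/450 nm) over 15 min at room temperature, normalized to controls, fitted to 4-parameter Hill.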
# [16] = molecular target: Phospholipid hydroperoxide glutathione peroxidase GPX4 (Homo sapiens) (UniProt P36969); assay: Primary qHTS Assay for Inhibitors of Recombinant Selenoprotein Glutathione Peroxidase 4 (GPX4) (AID 1845192); also: potency is read from the fitted curve at half-maximal effect; nearly all actives have a fitted effect of over 65% in size
# In short: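 Steps: GPX4 plus compound, 30 min RT; add GR/GSH/NADPH master mix; start with cumene hydroperoxide; read 340/450 nm fluorescence at 0 and 15 min. Finals were 200 nM GPX4, 1 mM GSH, 0.5 mM CHP, 0.5 mM NADPH, 100 nM GR.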
# [17] = Drug repurposing screens with cells derived from glioblastoma tumor samples (AID 1345199); conditions: GBM patient neurospheres viability, ATP luminescence, 48 h; Potency: tumour line A unless noted; activity, negative = cell killing: at 46 µM (top of the series), tumour line A unless noted; also: potency is read from the fitted curve at half-maximal effect; nearly all actives have a fitted effect of over 40% in size
# In short: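 Primary testing used CD133+ neurospheres from four GBM patients, seven concentrations, 48 h exposure and ATP-based viability; confirmation added three slower-growing patient lines.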
# Tags tell the direction and shape of the fitted curve.
# Sequence of UniProt P36969 (P36969 whole entry, looked up): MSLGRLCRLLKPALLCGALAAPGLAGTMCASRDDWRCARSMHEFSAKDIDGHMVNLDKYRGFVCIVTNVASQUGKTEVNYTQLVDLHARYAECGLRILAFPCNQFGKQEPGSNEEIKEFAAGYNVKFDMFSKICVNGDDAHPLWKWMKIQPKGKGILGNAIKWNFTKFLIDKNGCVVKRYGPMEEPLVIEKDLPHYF
compound,measurement,setting,value
CN1CCc2c(c3ccccc3n2Cc2ccc(C(=O)NO)cc2)C1,Potency,[1],active: 30.6 µM
same,Potency,[2],"inconclusive: 27.3 µM [cytotoxic, single point]"
same,Potency,[3],"inconclusive: 29.6 µM [cytotoxic, single point]"
same,Potency,[4],active: 20.9 µM
same,Potency,[5],inactive
same,Potency,[6],"inconclusive: 33.2 µM [cytotoxic, single point]"
same,Potency,[7],"inconclusive: 6.62 µM [cytotoxic, partial curve, poor fit]"
same,Potency,[8],"inconclusive: 37.2 µM [cytotoxic, single point]"
same,Potency,[9],"inconclusive: 20.9 µM [cytotoxic, partial curve]"
same,Potency,[10],active: 2.64 µM
same,Potency,[11],"inconclusive: 20.9 µM [inhibitor, partial curve]"
same,Potency,[12],inactive
O=C1Nc2nc(-c3c(O)cccc3OCC3CC3)cc([C@@H]3CCCNC3)c2CO1,Potency,[12],"inconclusive: 25.1 µM [cytotoxic, single point]"
same,Potency,[13],"inconclusive: 31.6 µM [cytotoxic, single point]"
C[C@]12CC[C@@H]3c4ccc(O)cc4CC[C@H]3[C@@H]1CC[C@@H]2OC(=O)CCC1CCCC1,Potency,[1],"inconclusive: 38.9 µM [cytotoxic, single point]"
same,Potency,[14],"inconclusive: 29.9 µM [cytotoxic, single point]"
same,Potency,[2],"inconclusive: 24.6 µM [cytotoxic, single point]"
same,Potency,[3],"inconclusive: 33.5 µM [cytotoxic, single point]"
same,Potency,[15],"inconclusive: 31.6 µM [inhibitor, partial curve]"
same,Potency,[16],"inconclusive: 35.5 µM [inhibitor, single point]"
same,Potency,[11],inactive
same,Potency,[12],inactive
same,Potency,[17],active: 7.94 µM and active: 22.4 µM
O=C(C=Cc1ccc(CN(CCO)CCc2c[nH]c3ccccc23)cc1)NO,Potency,[1],active: 0.385 µM
same,Potency,[14],active: 0.148 µM
same,Potency,[2],active: 0.611 µM
same,Potency,[4],active: 1.18 µM
same,Potency,[6],active: 0.209 µM
same,Potency,[7],active: 0.132 µM
same,Potency,[8],active: 0.059 µM
same,Potency,[9],active: 0.187 µM
same,viability (% of DMSO control),[10],inconclusive: 7.63% [cytotoxic]

# — PubChem BioAssay (NCATS)
